Hit rate of the full screen: of about 390,000 compounds, about 4,000 (1%) were called active. This list was built around the results that the source calls inconclusive (neither active nor inactive); the mix of calls is not that of the screen. Calls come from the whole dose curve; as a rule, active = well fitted inhibition curve with a large enough effect; inconclusive = small, poorly fitted or top-dose-only effect; inactive = no such curve, though single readings can be large or run the other way. Potencies of inconclusive entries are doubtful fits and often do not repeat.
What follows are compounds tested against Thioredoxin reductase 1, cytoplasmic (Rattus norvegicus) (UniProt O89049) (assay: qHTS Assay for Inhibitors of Mammalian Selenoprotein Thioredoxin Reductase 1 (TrxR1): qHTS). Conditions: recombinant rTrxR1, NADPH fluorescence consumption, selenite substrate; series mostly up to 114 µM; activity change, negative = inhibition: at the top concentration.
Sequence of UniProt O89049 (O89049 whole entry, looked up): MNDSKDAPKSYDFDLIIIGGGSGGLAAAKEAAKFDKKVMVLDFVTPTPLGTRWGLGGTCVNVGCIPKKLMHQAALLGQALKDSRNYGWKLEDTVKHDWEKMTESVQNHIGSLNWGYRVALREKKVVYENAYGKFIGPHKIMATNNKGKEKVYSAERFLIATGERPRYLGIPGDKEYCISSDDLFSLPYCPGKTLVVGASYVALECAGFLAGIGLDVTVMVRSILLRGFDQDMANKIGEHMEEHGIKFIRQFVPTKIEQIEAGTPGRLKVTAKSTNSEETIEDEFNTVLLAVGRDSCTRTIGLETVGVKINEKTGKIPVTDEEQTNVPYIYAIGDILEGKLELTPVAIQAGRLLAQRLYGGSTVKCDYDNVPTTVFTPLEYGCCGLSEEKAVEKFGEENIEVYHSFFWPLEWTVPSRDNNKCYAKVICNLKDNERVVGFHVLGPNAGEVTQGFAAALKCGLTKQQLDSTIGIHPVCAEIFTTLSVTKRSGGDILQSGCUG
In short: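 Rat TrxR1 (90 nM in the dispensed reagent) was pre-reduced with 400 uM NADPH for 5 min at room temperature, then incubated with compound for 15 min. After 400 uM selenite was added, NADPH fluorescence (Ex 340/Em 450 nm) was followed for 8 min.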
For `CCCOc1ccc(/C=C2/C(=O)ON=C2C)cc1Cl`, the Potency was inconclusive: 28.2 µM [inhibitor, full curve, poor fit]. `Cc1cc(C)cc(C(=O)NC(=S)Nc2cccnc2)c1` was tested, and the Potency was active: 44.7 µM. For `CN1CCN(c2nc(-c3cccs3)cs2)CC1`, the “activity change, negative = inhibition” value was inactive: 29.2% [at 57.1 µM]. In the case of `O=c1cc(CN2CCN(C/C=C/c3ccccc3)CC2)c2cc(O)c(-c3ccccc3)cc2o1`, the Potency is reported as inconclusive: 89.1 µM [inhibitor, single point]. For `COc1ccc(C(C)=O)cc1COC(=O)c1c(C)nn(-c2ccccc2)c1C`, the Potency was inconclusive: 50.1 µM [inhibitor, partial curve]. For `COc1ccc(C2Nc3ccccc3C(=O)N2Cc2ccco2)cc1COc1ccc(NC(C)=O)cc1` (configuration not stated), the Potency was inconclusive: 12.6 µM [inhibitor, full curve]. For `COc1ccc(C(=O)NC(=O)CSc2nnc(-c3ccco3)n2-c2ccccc2)cc1`, the Potency was inconclusive: 79.4 µM [inhibitor, partial curve]. With `CCc1ccc(-c2nc(CS(=O)CC(=O)NCc3ccco3)c(C)o2)cc1` (configuration not stated) the Potency was inconclusive: 50.1 µM [inhibitor, partial curve]. `Cc1ccc(C(=O)N2CCN(CCc3ccncc3)CC2)cc1` was tested, and the Potency was inconclusive: 31.6 µM [inhibitor, partial curve]. With `O=C(NNC(=S)Nc1cccc(Cl)c1)c1ccccc1OC(F)F` the Potency was inconclusive: 11.2 µM [inhibitor, full curve]. In the case of `COc1cc(NS(=O)(=O)c2ccc(Br)cc2)c(OC)cc1NC(=O)c1ccco1`, the Potency is reported as inconclusive: 20 µM [inhibitor, partial curve]. For `O=C(Nc1cc(C(F)(F)F)ccc1N1CCOCC1)C1Cc2ccccc2CN1C(=O)c1ccco1` (configuration not stated), the Potency was inconclusive: 31.6 µM [inhibitor, single point]. `COc1ccc(Oc2cccc(Cl)c2CNC(=O)CC(C)(C)CC(=O)O)cc1` was tested, and the Potency was inconclusive: 100 µM [inhibitor, partial curve, poor fit]. `CCOc1cc(C(=O)Nc2ccc(C)cc2O)ccc1OCC(=O)N1CCOCC1` was tested, and the Potency was inconclusive: 89.1 µM [inhibitor, partial curve, poor fit]. `CCC(C(=O)NCCC(C)C)N(C(=O)Cn1nnc(-c2ccc(C)cc2)n1)c1cccc(O)c1` (configuration not stated) was tested, and the “activity change, negative = inhibition” value was inactive: 0.465%. `CCOC(=O)c1ccc(NC(=O)Cn2cccc2)cc1` was tested, and the Potency was inconclusive: 39.8 µM [inhibitor, partial curve, poor fit]. For `O=[N+]([O-])c1cc(-c2ccc(/C=N\n3cnnc3)o2)cc([N+](=O)[O-])c1`, the Potency was inconclusive: 22.4 µM [inhibitor, partial curve, poor fit].

From PubChem BioAssay AID588453 (National Center for Advancing Translational Sciences (NCATS), 2011)
% is set by controls: 0 for no effect and ±100 for the full control effect; potency is the fitted concentration of half-maximal effect; tags give direction and shape of the fitted curve.
Note: nearly all actives have a fitted effect of over 65% in size.
